Molecular target: T1, Ly6E (Homo sapiens, UniProt Q16553)
T1 sequence (Q16553 21-101): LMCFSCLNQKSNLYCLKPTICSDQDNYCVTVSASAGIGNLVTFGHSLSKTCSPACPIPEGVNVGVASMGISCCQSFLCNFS
Test: Flow cytometry binding of anti-Ly6E antibodies to cells expressing Ly6E
Conditions: Kuramochi, NCI-H1781, HCC1569x2, compared with 9B12
Procedure: Chimeric anti-Ly6E was compared to a previously described anti-Ly6E antibody (9B12) (Asundi et al., Clin. Canc. Res. 2015, 3252-3262) for binding to cells expressing Ly6E. Cell lines were cultured as recommended by the ATCC. Prior to staining adherent lines were released by Accutase treatment, all cells were filtered and equilibrated in BD Stain buffer (BSA). Cells were stained with primary antibodies at indicated concentrations for 1 h at 4° C., washed ×3, stained with secondary Ab (Jackson ImmunoResearch 109-606-003) (1:100) for 1 h at 4° C., washed, stained with Fixable Viability Dye eFluor 780 (1:1000) for 1 h at 4° C., and washed ×2. Samples were fixed in 1% PFA (PBS) prior to analysis. Samples were assessed on a BD LSRFortessa. Following exclusion of dead cells, singlets were assessed for antibody binding using FlowJo software (FIGS. 2A-2C).
The Ly6E antibody was humanized by grafting the HC and LC CDRs into human germline frameworks (IGHV3-73*01/IGHJ1*01 and IGKV1-33*01/IGKJ2*01 respectively) and iterating between human and rat residues at Vernier positions to maximize binding while minimizing non-human residues. […] Cysteine residues were incorporated at previously described positions to enable generation on THIOMAB® antibodies (Ohri et al., Bioconj Chem. 2018, 473-485). […]

B1: Chimeric anti-Ly6E: rat-human chimeric anti-Ly6E antibody clone 3A3 (SEQ ID NOs. 4 and 6) (protein)
light: DIVMTQSPTSISISVGERVTMNCKASQNVGSNVDWYQQKTGQSPELLIYKASNRYTGVPGRFTGSGSGTDFTFTISNLQAEDLAVYYCMQSDTKYTFGAGTKVEIKRTVAAPSVFIFPPSDEQLKSGTASVVCLLNNFYPREAKVQWKVDNALQSGNSQESVTEQDSKDSTYSLSSTLTLSKADYEKHKVYACEVTHQGLSSPVTKSFNRGEC
heavy: AVQLVEFGGGLVQPKESLKISCAASGFTFSTVAMHWVRQAPGKGLEWIARIRTKPVNYETYYADSVKGRFTISRDDSKSMVYLQMDNLKTEDAAMYYCSAPNYYDGTYSFAYWGQGTLVTVSS[sequence of human IgG1 constant region omitted]
modifications: Chimeric variable light chain amino acid sequence of anti-Ly6E antibody clone 3A3; Chimeric heavy chain amino acid sequence of anti-Ly6E antibody clone 3A3
  binding to cells expressing Ly6E: enhanced binding compared to 9B12

— US20250122280A1, “ANTI-Ly6E ANTIBODIES, IMMUNOCONJUGATES, AND USES THEREOF” (Genentech, Inc., priority 2022, published 2025)
